Test results from PubChem BioAssay AID686978 (National Center for Advancing Translational Sciences (NCATS), 2013).
Screen size: about 420,000 compounds; about 64,000 (15%) were called active. The shares of active, inactive and inconclusive entries below differ from those in the screen. The call rests on the fitted dose curve; in most records, active means well fitted inhibition curve with a large enough effect; inconclusive means small, poorly fitted or top-dose-only effect; inactive means flat fitted curve, though single readings scatter. Potencies of inconclusive entries are left out as doubtful fits.

test: qHTS for Inhibitors of human tyrosyl-DNA phosphodiesterase 1 (TDP1): qHTS in cells in absence of CPT; settings: DT40 Tdp1-/- hTDP1 cells, no CPT, ATP luminescence, 48 h; activity change, negative = growth inhibition: at 46.2 µM (top of the series) unless noted; further: nearly all actives have a fitted effect of over 55% in size
Procedure, shortened: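 Cells were dispensed at 400 per well, compounds added by pin tool, plates incubated ≥48 hr at 37 °C, then CellTiter-Glo added for 30 min at room temperature before luminescence reading. Line: DT40 Tdp1-/- complemented with hTDP1; camptothecin omitted.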
On the % scale 0 is the no-effect control and ±100 the full control effect; potency means the concentration at half of the fitted maximal effect; tags describe the fitted curve by direction and shape.

Compound	activity change, negative = growth inhibition	Potency
COc1ccccc1NC(=O)c1ccc(NC(=O)COC(=O)CCC2CCCC2)cc1	inactive: 17.3%	
COC(=O)C1(C)CC1(c1ccccc1)c1ccccc1 (centres undefined)	inconclusive: -35.2% [inhibitor]	
O=C(CCC(=O)N1CCN(S(=O)(=O)c2ccccc2)CC1)c1ccc(Br)cc1		inconclusive [inhibitor, single point]
Cc1cc(C)n(-c2ccc(NC(=O)C3CCCCN3Cc3cccc4c3OCO4)cc2)n1 (centres undefined)		inconclusive [inhibitor, single point]
Cc1occc1C(=O)Nc1cc(C(C)(C)C)on1		inconclusive [inhibitor, partial curve]
Cc1ccc(C)c(S(=O)(=O)Nc2nc(C)c(C(=O)Nc3ccccc3)s2)c1		inconclusive [inhibitor, single point]
CC(C)(C)c1cc(C(=O)N/N=C/c2ccc(-c3ccccc3[N+](=O)[O-])o2)n[nH]1		inconclusive [inhibitor, single point]
COC(=O)C1=C(C)N(Cc2ccccc2)C(=NCc2ccccc2)N[C@H]1c1cccc(F)c1		active: 8.2 µM
CCOC(=O)N1CCC(NC(=O)CS(=O)(=O)Cc2nc(-c3ccccc3C)oc2C)CC1		inconclusive [inhibitor, single point]
O=C(NC1CCCCCCC1)c1ccccc1-c1ccccc1		inconclusive [inhibitor, single point]
O=C(CSc1ccccc1)NCc1ccc2c(c1)CCN2C(=O)c1ccc(Cl)cc1	inconclusive: -32% [inhibitor]	
COc1cc(OC)cc(C2=Cc3ccccc3C(CC(=O)c3ccco3)N2c2ccc(-c3ccc(C(N)=O)cc3)cc2)c1 (centres undefined)		inconclusive [inhibitor, single point]
COc1ccc(/C=C2/SC(=O)N(CCC(=O)Nc3ccccc3)C2=O)cc1OC		inconclusive [inhibitor, single point]
O=C(N/N=C\c1cn[nH]c1-c1ccc(Cl)cc1)c1cccs1	inactive: -28.1%	
CCOc1ccc(NCc2cc3cc(OC)ccc3[nH]c2=O)cc1		active: 20.6 µM
COc1ccc(C(=O)NC(C)CCn2cccn2)cc1OC1CCN(C(C)C)CC1 (centres undefined)	inactive: 0.479%	
Cc1cccc(Nc2nnc(SC/C(O)=C(\C#N)c3nc4ccccc4[nH]3)s2)c1		inconclusive [inhibitor, single point]
Cc1ccc(C(=O)Nc2ccccc2C(=O)O)cc1S(=O)(=O)NC1CCCCC1	inactive: 0.155%	
O=c1[nH]c2ccccc2cc1-c1nnn(-c2ccc(Cl)c(Cl)c2)n1	inconclusive: -33.9% [inhibitor]	
